According to PubChem BioAssay (EPA / NIEHS):
Values joined by “and” are separate entries in the source; they are usually repeats but may differ in a detail not shown here. Equal values may be shown once. The list shows a part of the results, in another mix than the full data. Inconclusive results are not listed. Some structures have more than one record in an assay (separate samples or runs), and their calls can disagree. Active and inactive are the calls of the source. Rule for the calls, unless noted: active = hit-call score of the fitted dose curve at least 0.9, where 1 is the maximum; inactive = score below 0.9.

How the values were obtained:
[1] = target: human Peroxisome Proliferator-activated Receptor alpha (PPARa), PPARA (gene 5465) (UniProt Q07869); test: ATG_PPARa_TRANS: Attagene TRANS-FACTORIAL HepG2 Assay for human Peroxisome Proliferator-activated Receptor alpha (PPARa) (AID 2283001; active = hit-call score of the fitted dose curve at least 0.9, where 1 is the maximum)
Sequence of UniProt Q07869 (Q07869 whole entry, looked up, the tested form may be a part): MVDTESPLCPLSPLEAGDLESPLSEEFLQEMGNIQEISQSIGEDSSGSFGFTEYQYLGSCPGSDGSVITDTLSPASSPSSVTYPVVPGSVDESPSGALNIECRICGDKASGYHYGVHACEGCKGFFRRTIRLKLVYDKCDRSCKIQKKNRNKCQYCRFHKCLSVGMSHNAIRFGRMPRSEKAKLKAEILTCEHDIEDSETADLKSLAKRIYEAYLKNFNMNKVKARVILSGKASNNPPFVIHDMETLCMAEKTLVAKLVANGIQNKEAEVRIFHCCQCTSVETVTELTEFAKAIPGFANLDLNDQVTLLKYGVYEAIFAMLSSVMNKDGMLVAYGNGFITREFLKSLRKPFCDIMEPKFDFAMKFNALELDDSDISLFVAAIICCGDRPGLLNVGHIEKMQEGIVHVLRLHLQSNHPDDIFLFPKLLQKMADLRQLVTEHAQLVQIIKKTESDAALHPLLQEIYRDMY
Summary of the method: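 Reporter transcripts quantified by RT-PCR plus capillary electrophoresis after 24 h treatment, fitted upward relative to DMSO. Cells: human HepG2 transiently carrying multiple GAL4-UAS reporter units driven by NR-Gal4 chimeras.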

[2] = target: Peroxisome proliferator-activated receptor gamma (Homo sapiens) (UniProt P37231); test: ATG_PPARg_TRANS: Attagene TRANS-FACTORIAL HepG2 Assay for human Peroxisome Proliferator-activated Receptor-gamma (PPARg) (AID 2283007; active = hit-call score of the fitted dose curve at least 0.9, where 1 is the maximum)
Sequence of UniProt P37231 (P37231 whole entry, looked up, the tested form may be a part): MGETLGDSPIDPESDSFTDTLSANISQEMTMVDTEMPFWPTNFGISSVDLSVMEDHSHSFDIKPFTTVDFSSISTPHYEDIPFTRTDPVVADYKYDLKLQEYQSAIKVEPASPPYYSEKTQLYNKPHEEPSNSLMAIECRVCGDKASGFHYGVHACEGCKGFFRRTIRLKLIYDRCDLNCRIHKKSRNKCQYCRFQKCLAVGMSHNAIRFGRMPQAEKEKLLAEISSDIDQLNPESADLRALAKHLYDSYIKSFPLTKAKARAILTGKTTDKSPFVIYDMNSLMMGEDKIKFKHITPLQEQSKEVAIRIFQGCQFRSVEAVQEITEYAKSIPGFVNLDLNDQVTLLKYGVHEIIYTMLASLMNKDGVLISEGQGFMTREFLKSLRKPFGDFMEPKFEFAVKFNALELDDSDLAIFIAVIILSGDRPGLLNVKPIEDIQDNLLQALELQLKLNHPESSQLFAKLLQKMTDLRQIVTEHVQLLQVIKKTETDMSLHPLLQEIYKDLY
Summary of the method: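 HepG2 cells transiently transfected with multiplexed GAL4-UAS reporter units and exogenous chimeric NR-Gal4 proteins; reporter mRNA quantified after 24 h compound exposure by RT-PCR, fluorescent labelling, HpaI digestion and capillary electrophoresis; gain-of-signal fitted versus DMSO baseline.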

[3] = target: Nuclear receptor subfamily 1 group I member 2 (Homo sapiens) (UniProt O75469); test: ATG_PXR_TRANS: Attagene TRANS-FACTORIAL HepG2 Assay for human Pregnane X Receptor (PXR) (AID 2283008; active = hit-call score of the fitted dose curve at least 0.9, where 1 is the maximum)
Sequence of UniProt O75469 (O75469 whole entry, looked up, the tested form may be a part): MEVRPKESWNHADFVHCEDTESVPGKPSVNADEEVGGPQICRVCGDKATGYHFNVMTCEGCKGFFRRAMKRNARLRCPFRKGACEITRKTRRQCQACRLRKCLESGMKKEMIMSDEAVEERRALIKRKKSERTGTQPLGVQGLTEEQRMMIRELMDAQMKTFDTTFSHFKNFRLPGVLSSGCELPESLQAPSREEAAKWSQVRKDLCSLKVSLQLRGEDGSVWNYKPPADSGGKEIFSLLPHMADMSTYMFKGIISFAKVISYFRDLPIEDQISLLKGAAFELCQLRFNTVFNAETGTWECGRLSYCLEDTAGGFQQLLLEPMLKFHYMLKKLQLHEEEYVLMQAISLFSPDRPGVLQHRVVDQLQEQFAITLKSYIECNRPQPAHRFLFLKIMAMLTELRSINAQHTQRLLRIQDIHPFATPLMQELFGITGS
Summary of the method: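 Transactivation by exogenous PXR–GAL4 fusion measured as reporter transcript induction after 24 h compound treatment of transfected human HepG2 cells. Read-out via RT-PCR and capillary electrophoresis of labelled fragments, fitted upward relative to DMSO.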

[4] = target: Retinoic acid receptor RXR-alpha (Homo sapiens) (UniProt P19793); test: ATG_RXRa_TRANS: Attagene TRANS-FACTORIAL HepG2 Assay for human Retinoid X Receptor alpha (RXRa) (AID 2283012; active = hit-call score of the fitted dose curve at least 0.9, where 1 is the maximum)
Sequence of UniProt P19793 (P19793 whole entry, looked up, the tested form may be a part): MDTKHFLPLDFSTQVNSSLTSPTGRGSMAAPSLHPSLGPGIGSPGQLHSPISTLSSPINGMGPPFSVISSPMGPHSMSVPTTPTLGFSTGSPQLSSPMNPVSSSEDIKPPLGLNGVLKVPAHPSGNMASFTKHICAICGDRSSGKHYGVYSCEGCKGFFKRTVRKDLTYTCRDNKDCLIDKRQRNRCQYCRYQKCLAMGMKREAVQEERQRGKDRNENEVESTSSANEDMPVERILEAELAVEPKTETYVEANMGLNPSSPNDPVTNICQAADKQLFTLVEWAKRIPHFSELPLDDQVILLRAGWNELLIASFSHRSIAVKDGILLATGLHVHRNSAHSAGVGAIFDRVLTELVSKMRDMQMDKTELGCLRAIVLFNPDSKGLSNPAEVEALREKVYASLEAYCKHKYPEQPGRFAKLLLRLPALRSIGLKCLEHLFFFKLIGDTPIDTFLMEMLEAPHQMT
Summary of the method: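 TRANS format reporting activity of exogenous RXRa-Gal4 chimera in transiently transfected HepG2, 24 h exposure. Reporter transcripts quantified by RT-PCR with capillary electrophoresis, with gain of signal scored relative to DMSO.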

[5] = read-out: E-selectin (Homo sapiens) (UniProt P16581); test: BSK_3C_Eselectin: BioMAP Diversity Plus: 3C Assay for Eselectin Biomarker Activity (AID 2283015); details: actives raise or lower the signal; primary human endothelial cells (HUVEC)
Sequence of UniProt P16581 (P16581 whole entry, looked up): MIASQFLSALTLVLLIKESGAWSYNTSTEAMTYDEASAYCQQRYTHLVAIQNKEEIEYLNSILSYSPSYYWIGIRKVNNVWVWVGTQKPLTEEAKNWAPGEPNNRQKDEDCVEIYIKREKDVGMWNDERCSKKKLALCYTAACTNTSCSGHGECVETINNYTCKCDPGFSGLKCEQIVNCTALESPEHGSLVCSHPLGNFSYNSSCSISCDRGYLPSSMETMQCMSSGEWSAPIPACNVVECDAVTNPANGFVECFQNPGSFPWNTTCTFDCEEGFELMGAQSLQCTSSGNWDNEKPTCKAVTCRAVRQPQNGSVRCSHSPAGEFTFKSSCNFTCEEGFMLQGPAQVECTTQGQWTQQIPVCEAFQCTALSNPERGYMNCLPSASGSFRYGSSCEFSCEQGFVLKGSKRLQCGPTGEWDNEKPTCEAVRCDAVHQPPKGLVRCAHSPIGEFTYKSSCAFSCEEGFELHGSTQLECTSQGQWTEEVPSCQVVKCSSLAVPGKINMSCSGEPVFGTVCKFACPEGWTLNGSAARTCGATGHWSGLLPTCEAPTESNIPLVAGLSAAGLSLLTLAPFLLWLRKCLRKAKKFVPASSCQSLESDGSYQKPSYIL
Summary of the method: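 E-selectin ELISA readout, fitted bidirectionally relative to DMSO, taken 24 h post-dosing in HUVEC cultures of the 3C system. Overt cytotoxicity tracked with sulforhodamine B staining of parallel wells.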

[6] = BSK_BE3C_SRB: Viability Assessment in the BioMAP Diversity Plus: BE3C Assay (AID 2283028); details: primary human bronchial epithelial cells;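 note: fitted both ways so AC50 may mark signal gain or loss versus DMSO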
Summary of the method: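 Cytotoxicity read-out: SRB (0.1%) staining of TCA-fixed (10%) human lung bronchial epithelial cells, absorbance 560 nm, 24 h post-dosing. Curves fitted both directions relative to DMSO.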

[7] = read-out: Vascular cell adhesion molecule 1 (VCAM1), VCAM1 (gene 7412); test: BSK_4H_VCAM1: BioMAP Diversity Plus: 4H Assay for Vascular cell adhesion molecule 1 (VCAM1) Biomarker Activity (AID 2283033); details: actives raise or lower the signal; primary human endothelial cells (HUVEC)
Summary of the method: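 VCAM-1 ELISA read 24 h after chemical dosing of HUVEC in the BioMAP 4H system, with gain or loss of signal fitted relative to DMSO. Parallel SRB staining (560 nm) checked overt cytotoxicity.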

[8] = read-out: Interleukin-6 (IL6), IL6 (gene 3569); test: BSK_CASM3C_IL6: BioMAP Diversity Plus: CASM3C Assay for Interleukin-6 (IL6) Biomarker Activity for (AID 2283040); details: actives raise or lower the signal; primary human coronary artery smooth muscle cells
[9] = read-out: Monocyte Chemoattractant Protein-1 (MCP1), CCL2 (gene 6347); test: BSK_CASM3C_MCP1: BioMAP Diversity Plus: CASM3C Assay for Monocyte Chemoattractant Protein-1 (MCP1) Biomarker Activity (AID 2283046); details: actives raise or lower the signal; primary human coronary artery smooth muscle cells
[10] = read-out: serum amyloid A (SAA), SAA1 (gene 6288); test: BSK_CASM3C_SAA: BioMAP Diversity Plus: CASM3C Assay for serum amyloid A (SAA) Biomarker Activity (AID 2283049); details: actives raise or lower the signal; primary human coronary artery smooth muscle cells
[11] = read-out: TIMP metallopeptidase inhibitor 1 (TIMP1), TIMP1 (gene 7076); test: BSK_hDFCGF_TIMP1: BioMAP Diversity Plus: hDFCGF Assay for TIMP metallopeptidase inhibitor 1 (TIMP1) Biomarker Activity (AID 2283062); details: actives raise or lower the signal; primary human foreskin fibroblasts
Summary of the method: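 TIMP-1 measured by ELISA 24 h after chemical dosing of primary human skin fibroblasts, with gain or loss fitted relative to DMSO. Parallel SRB staining (560 nm) monitored overt cytotoxicity.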

[12] = read-out: Monokine induced gamma interferon (MIG), CXCL9 (gene 4283); test: BSK_hDFCGF_MIG: BioMAP Diversity Plus: hDFCGF Assay for Monokine induced gamma interferon (MIG) Biomarker Activity (AID 2283063); details: actives raise or lower the signal; primary human foreskin fibroblasts
Summary of the method: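 Human primary foreskin fibroblasts in the hDFCGF system, exposed to test chemical for 24 h; MIG measured by ELISA. Bidirectional curve fitting against DMSO negative control as activity baseline.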

[13] = read-out: Matrix Metallopeptidase 1 (MMP1), MMP1 (gene 4312); test: BSK_hDFCGF_MMP1: BioMAP Diversity Plus: hDFCGF Assay for Matrix Metallopeptidase 1 (MMP1) Biomarker Activity (AID 2283064); details: actives raise or lower the signal; primary human foreskin fibroblasts
Summary of the method: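 MMP1 levels quantified by ELISA 24 h after dosing human dermal fibroblast cultures, with parallel SRB total-protein staining for overt cytotoxicity. Data fitted in both directions against DMSO baseline.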

[14] = read-out: Plasminogen activator inhibitor-1 (PAI1), SERPINE1 (gene 5054); test: BSK_hDFCGF_PAI1: BioMAP Diversity Plus: hDFCGF Assay for Plasminogen activator inhibitor-1 (PAI1) Biomarker Activity (AID 2283066); details: actives raise or lower the signal; primary human foreskin fibroblasts
Summary of the method: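 PAI-1 levels in human dermal foreskin fibroblasts were quantified by ELISA 24 h after dosing, with gain or loss analysed against DMSO. Overt cytotoxicity was checked by sulforhodamine B total-protein staining in parallel cultures.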

[15] = BSK_KF3CT_SRB: Viability Assessment in the BioMAP Diversity Plus: KF3CT Assay (AID 2283069); details: primary human keratinocytes with fibroblasts
Summary of the method: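 Cytotoxicity was gauged by SRB staining (0.1% SRB, 10% TCA fixation, 560 nm) of parallel cultures at 24 h. The cells were primary human skin keratinocytes co-cultured with fibroblasts, and activity was fitted in both directions against DMSO.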

[16] = read-out: Interleukin-1 alpha (IL1a), IL1A (gene 3552); test: BSK_KF3CT_IL1a: BioMAP Diversity Plus: KF3CT Assay for Interleukin-1 alpha (IL1a) Biomarker Activity (AID 2283070); details: actives raise or lower the signal; primary human keratinocytes with fibroblasts
Summary of the method: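 IL-1a was detected by ELISA 24 h after chemical treatment of a co-culture of human skin keratinocytes and foreskin fibroblasts. Gain or loss of signal was fitted against the DMSO baseline.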

[17] = read-out: Transforming growth factor beta 1 (TGFb1), TGFB1 (gene 7040); test: BSK_KF3CT_TGFb1: BioMAP Diversity Plus: KF3CT Assay for Transforming growth factor beta 1 (TGFb1) Biomarker Activity (AID 2283072); details: actives raise or lower the signal; primary human keratinocytes with fibroblasts
Summary of the method: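 ELISA quantifies TGF-b1 at 24 h post-dose in a primary human skin co-culture of keratinocytes and fibroblasts, with gain or loss judged against DMSO. Parallel SRB total-protein staining flags overt cytotoxicity.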

[18] = read-out: urokinase plasminogen activator (uPA), PLAU (gene 5328); test: BSK_KF3CT_uPA: BioMAP Diversity Plus: KF3CT Assay for urokinase plasminogen activator (uPA) Biomarker Activity (AID 2283075); details: actives raise or lower the signal; primary human keratinocytes with fibroblasts
Summary of the method: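 ELISA read-out of uPA 24 h after dosing human skin keratinocytes co-cultured with foreskin fibroblasts. Signal change fitted both ways relative to DMSO; sulforhodamine B on parallel cultures marks overt cytotoxicity.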

[19] = read-out: E-selectin (Homo sapiens) (UniProt P16581); test: BSK_LPS_Eselectin: BioMAP Diversity Plus: LPS Assay for Eselectin Biomarker Activity (AID 2283077); details: actives raise or lower the signal; primary human HUVEC with PBMC
Summary of the method: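 E-selectin ELISA on LPS-stimulated endothelial cell/PBMC co-cultures, read 24 h post-treatment; gains and losses fitted against DMSO. Parallel SRB staining (0.1% SRB after 10% TCA fixation, 560 nm) flags overt cytotoxicity.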

[20] = read-out: Interleukin-1 alpha (IL1a), IL1A (gene 3552); test: BSK_LPS_IL1a: BioMAP Diversity Plus: LPS Assay for Interleukin-1 alpha (IL1a) Biomarker Activity (AID 2283080); details: actives raise or lower the signal; primary human HUVEC with PBMC
Summary of the method: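 Readout is IL-1a level by ELISA, 24 h post-dose, fitted as gain or loss relative to DMSO. System: LPS-activated human primary co-culture of vascular endothelium and peripheral blood mononuclear cells, with parallel SRB total-protein cytotoxicity.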

[21] = read-out: Vascular cell adhesion molecule 1 (VCAM1), VCAM1 (gene 7412); test: BSK_LPS_VCAM1: BioMAP Diversity Plus: LPS Assay for Vascular cell adhesion molecule 1 (VCAM1) Biomarker Activity (AID 2283086); details: actives raise or lower the signal; primary human HUVEC with PBMC
Summary of the method: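 VCAM-1 quantified by ELISA in an LPS-activated co-culture of human endothelial cells and peripheral blood mononuclear cells, read 24 h post-treatment. Fitted in both directions versus DMSO; parallel SRB staining flags overt cytotoxicity.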

CD38, CD38 (gene 952) = test: BSK_SAg_CD38: BioMAP Diversity Plus: SAg Assay for CD38 Biomarker Activity (AID 2283087); details: actives raise or lower the signal; primary human HUVEC with PBMC
Summary of the method: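 CD38 quantified by ELISA (fluorescence) in a superantigen-activated endothelial cell–PBMC co-culture at 24 h post-dose. Activity fitted in both directions relative to DMSO; parallel SRB and Alamar Blue cytotoxicity read-outs.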

Measured: AC50

Oc1ccc(Cl)cc1Cc1ccccc1
inactive: [1]
active: [2] 11.2 µM | [3] 14.6 µM | [4] 15.4 µM | [5] 31.2 µM | [6] 38.6 µM and 35.1 µM | [7] 25.6 µM | [8] 27.4 µM | [9] 31.8 µM and 32.5 µM | [10] 31.4 µM | [11] 15.5 µM | [12] 26.4 µM and 25.6 µM | [13] 13.5 µM | [14] 10.8 µM | [15] 35.2 µM | [16] 29.4 µM | [17] 25.5 µM | [18] 31.2 µM | [19] 31.2 µM | [20] 32.5 µM | [21] 30.6 µM | CD38, CD38 (gene 952) 32.7 µM
